Data as given in the supplement of paper PMC9446081.
In all, about 39,000 compounds went through this assay and about 220 (0.56%) showed activity. The list shows a part of the results.

Tested on: Escherichia coli K-12 BW25113
Assay: relative growth (OD600 normalised to plate interquartile mean) (fraction); higher = less growth inhibition, active = 0.2 or less
Settings: 50 µM; LB; incubation time: overnight (16-24 h)
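Also: static incubation at 37 °C against the wild-type strain, values averaged over two biological replicates.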

Structure (SMILES) | relative growth
CC(C)CC#Cc1ccc2c(c1)O[C@H](CN(C)Cc1cncnc1)[C@@H](C)CN([C@@H](C)CO)S2(=O)=O | inactive: 0.922
C[C@@H]1CN([C@H](C)CO)C(=O)CCCn2cc(nn2)CO[C@H]1CN(C)S(=O)(=O)c1cn(C)cn1 | inactive: 0.999
CO[C@H](CN(C)C(=O)c1ccccc1F)[C@H](C)CN([C@@H](C)CO)S(=O)(=O)c1ccc(Cl)cc1 | inactive: 0.991
C[C@H](CO)N1C[C@H](C)[C@H](CN(C)C(=O)Nc2cccc3ccccc23)OCCCC[C@H](C)Oc2ccc(NC(=O)CCCN(C)C)cc2C1=O | inactive: 0.971
OCCN(CCO)c1nc2ccccc2[nH]1 | inactive: 0.974
C[C@@H]1CCCCO[C@H](CN(C)S(=O)(=O)c2ccc(F)cc2)[C@H](C)CN([C@H](C)CO)C(=O)c2cc(NC(=O)CCC(F)(F)F)ccc2O1 | inactive: 1.02
C[C@@H]1CCCCO[C@H](CN(C)C(=O)Nc2ccccc2)[C@H](C)CN([C@@H](C)CO)C(=O)c2cc(NC(=O)NC3CCCCC3)ccc2O1 | inactive: 1
Cc1noc(C)c1NC(=O)N(C)C[C@@H]1Oc2c(NC(=O)C3CCOCC3)cccc2C(=O)N([C@H](C)CO)C[C@H]1C | inactive: 0.975
CNNCc1ccc(C(=O)NC(C)C)cc1 | inactive: 1.08
C[C@H](CO)N1C[C@H](C)[C@@H](CN(C)C(=O)Nc2ccc3c(c2)OCO3)Oc2ncc(C#CC3(O)CCCC3)cc2C1=O | inactive: 0.985
Nc1ccc(C(=O)Oc2ccccc2)c(O)c1 | inactive: 1.02
Cc1ccc(S(=O)(=O)N(C)C[C@@H]2OCCCC[C@@H](C)Oc3ccc(NC(=O)Nc4c(C)noc4C)cc3C(=O)N([C@H](C)CO)C[C@@H]2C)cc1 | inactive: 1
C[C@H](CO)N1C[C@H](C)[C@@H](CN(C)C(=O)CCCN(C)C)OCCCC[C@H](C)Oc2ccc(NS(=O)(=O)c3cn(C)cn3)cc2C1=O | inactive: 0.975
C[C@H](C(=O)O)N1CCCC1=O | inactive: 1.01
C[C@H]1CCCCO[C@H](CN(C)C(=O)CCC(F)(F)F)[C@@H](C)CN([C@@H](C)CO)C(=O)c2cc(NS(=O)(=O)c3ccc(Cl)cc3)ccc2O1 | inactive: 1
C[C@H]1C[C@@H](OC2[C@@H](O)[C@H](O)[C@H](O)[C@H](O)[C@@H]2O)[C@@H](N)C[C@@H]1NC(=N)C(=O)O (some centres undefined) | inactive: 0.501
Cc1noc(C)c1NC(=O)N(C)C[C@H]1Oc2ccc(NS(C)(=O)=O)cc2CC(=O)N([C@@H](C)CO)C[C@@H]1C | inactive: 0.996
N#Cc1c(Oc2ccc(F)c(NC(=O)Cc3cccc(C(F)(F)F)c3)c2)ccc2nc(NC(=O)C3CC3)sc12 | inactive: 1.01
C=CC[C@H](CC(=O)N(CCO)Cc1ccccc1)C(=O)NCCOC(=O)[C@H](CC=C)CC(=O)OC(C)(C)C | inactive: 1.01
Cn1nc(CN2CCCC2=O)c2c1CN(C(=O)CO)C2 | inactive: 1.01

Structure (SMILES) | relative growth
C[C@@H]1CN([C@H](C)CO)C(=O)c2cc(NC(=O)Nc3ccc(C(F)(F)F)cc3)ccc2O[C@@H]1CN(C)C(=O)Nc1ccc2c(c1)OCO2 | inactive: 1.01
C[C@@H]1CCCCO[C@@H](CN(C)C(=O)c2ccccc2)[C@H](C)CN([C@H](C)CO)C(=O)c2cc(NC(=O)NC3CCCCC3)ccc2O1 | inactive: 0.973
Cc1ccc(S(=O)(=O)N[C@@H](Cc2ccccc2)C(=O)NCCn2cc(-c3cccc(/C=C/C(=O)NO)c3)nn2)cc1 | inactive: 1.01
C[C@@H]1CN([C@@H](C)CO)C(=O)Cc2cc(NC(=O)c3ccncc3)ccc2O[C@H]1CN(C)S(=O)(=O)c1ccc(Cl)cc1 | inactive: 0.997
C[C@@H]1CN([C@H](C)CO)C(=O)c2cc(NS(=O)(=O)c3cn(C)cn3)ccc2O[C@@H](C)CCCCO[C@@H]1CN(C)C(=O)c1ccncc1 | inactive: 0.992
COC(=O)Cc1csc(CC(N)=O)n1 | inactive: 1.01
C[C@@H]1CN([C@@H](C)CO)C(=O)Cc2cc(NC(=O)Nc3cccc4ccccc34)ccc2O[C@H]1CN(C)C(=O)Nc1ccc(C(F)(F)F)cc1 | inactive: 1.01
N[C@]12CC[C@](C(=O)O)(CC1)C2 | inactive: 0.991
C[C@@H]1CN([C@H](C)CO)C(=O)c2cccc(NC(=O)Nc3cccc4ccccc34)c2O[C@@H]1CN(C)C(=O)Nc1cccc2ccccc12 | inactive: 1.02
C=CCOC(=O)[C@H]1[C@@H]2C(=O)O[C@@H](c3ccccc3)[C@@H](c3ccccc3)N2[C@@H](c2ccc(OCCOC(=O)[C@@H]3C[C@@H]4C(=O)N5CCC[C@H]5C(=O)N4[C@@H]3c3ccc(O)cc3)cc2)[C@]12C(=O)Nc1ccccc12 | inactive: 1.03
Cc1noc(C)c1S(=O)(=O)N(C)C[C@@H]1Oc2ccc(NC(=O)Nc3ccccc3)cc2CC(=O)N([C@@H](C)CO)C[C@@H]1C | inactive: 1.02
C[C@H]1CCCCO[C@H](CN(C)C(=O)NC2CCCCC2)[C@@H](C)CN([C@@H](C)CO)C(=O)c2cc(NC(=O)C3CCCCC3)ccc2O1 | inactive: 0.762
COc1ccc(NC(=O)N(C)C[C@H]2OCCCC[C@@H](C)Oc3ccc(NS(=O)(=O)c4c(C)noc4C)cc3C(=O)N([C@@H](C)CO)C[C@H]2C)cc1 | inactive: 1.01
CC(C)NC(=O)Nc1ccc2c(c1)C(=O)N([C@H](C)CO)C[C@H](C)[C@@H](CN(C)S(=O)(=O)c1cn(C)cn1)OCCCC[C@H](C)O2 | inactive: 0.881
COCC(=O)N(C)C[C@H]1Oc2cc(C#Cc3cccnc3)ccc2S(=O)(=O)N([C@@H](C)CO)C[C@H]1C | inactive: 1.05
C[C@H](CO)N1C[C@H](C)[C@@H](CN(C)C(=O)Nc2ccccc2C(F)(F)F)OCc2cnnn2CCCC1=O | inactive: 0.982
C=C(NC(=O)C(=C)NC(=O)c1csc(C2=N[C@@H]3c4csc(n4)[C@@H]4NC(=O)c5csc(n5)[C@H](C(C)(O)[C@@H](C)O)NC(=O)[C@H]5CSC(=N5)/C(=C/C)NC(=O)[C@H]([C@@H](C)O)NC(=O)c5csc(n5)[C@]3(CC2)NC(=O)[C@@H](C)NC(=O)C(=C)NC(=O)[C@@H](C)NC(=O)[C@@H]([C@H](C)CC)N[C@H]2C=Cc3c([C@@H](C)O)cc(nc3[C@@H]2O)C(=O)O[C@H]4C)n1)C(N)=O (some centres undefined) | inactive: 0.966
C[C@H]1CN([C@@H](C)CO)C(=O)c2cc(-c3cccc(C(=O)N(C)C)c3)cnc2O[C@@H]1CN(C)S(=O)(=O)c1ccccc1 | inactive: 1
[N-]=[N+]=NCc1ccccc1C[C@]1(C(=O)NCc2ccccc2)N=C(c2ccc(OCCCO)cc2)O[C@H]1c1ccccc1 | inactive: 1.04
COc1cccc(OCc2ccc(Cn3nc(NC(=O)Nc4c(OC)cccc4OC)c4ccccc43)cc2)c1 | inactive: 1

Structure (SMILES) | relative growth
COc1ccccc1S(=O)(=O)N[C@@H]1C=C[C@H](CC(=O)N2CCN(C)CC2)O[C@H]1CO | inactive: 0.987
O=C(Nc1nccs1)[C@H]1[C@H](CO)[C@H]2Cn3c(cccc3=O)[C@@H]1N2C(=O)C1CC1 | inactive: 1
C[C@@H]1CN([C@@H](C)CO)S(=O)(=O)c2ccc(C3=CCCC3)cc2O[C@@H]1CN(C)C(=O)C1CCOCC1 | inactive: 0.979
C[C@H](CO)N1C[C@H](C)[C@H](CN(C)S(=O)(=O)c2ccccc2)Oc2c(NC(=O)C3CCOCC3)cccc2C1=O | inactive: 1
COCC#Cc1cnc2c(c1)C(=O)N([C@H](C)CO)C[C@H](C)[C@H](CN(C)C(=O)CCN1CCCCC1)O2 | inactive: 1
C[C@@H]1CCCCO[C@@H](CN(C)Cc2ccc(C(=O)O)cc2)[C@@H](C)CN([C@@H](C)CO)C(=O)c2cc(NC(=O)C3CCCCC3)ccc2O1 | inactive: 1
COc1ccc(S(=O)(=O)Nc2ccc3c(c2)C(=O)N([C@H](C)CO)C[C@H](C)[C@@H](CN(C)S(C)(=O)=O)OCCCC[C@@H](C)O3)cc1 | inactive: 0.975
COCC#Cc1ccc2c(c1)O[C@@H](CN(C)S(=O)(=O)c1cccc(F)c1)[C@H](C)CN([C@@H](C)CO)S2(=O)=O | inactive: 1.01
NNC(=O)[C@@H](O)c1ccccc1 | inactive: 0.981
O=C(O)c1c[nH]ccc1=O | inactive: 1.02
C[C@@H]1CN([C@@H](C)CO)C(=O)c2cccc(NC(=O)Nc3ccc4c(c3)OCO4)c2O[C@@H]1CN(C)Cc1ccc(Oc2ccccc2)cc1 | inactive: 1
C[C@@H]1CCCCO[C@H](CN(C)C(=O)Nc2ccc(C(F)(F)F)cc2)[C@@H](C)CN([C@@H](C)CO)C(=O)c2cc(NC(=O)C3CCCCC3)ccc2O1 | inactive: 1.01
C=C(CO)C(=O)O[C@@H]1[C@H]2C(=C)C(=O)O[C@@H]2[C@H]2O[C@]2(C)CC/C=C(/C(=O)OC)[C@H]1OC(C)=O | inactive: 1.01
O=c1[nH]cc(/N=C/c2ccncc2)c(=O)[nH]1 | inactive: 0.98
O=C(C[C@@H]1C=C[C@@H](NC(=O)C2CC2)[C@@H](CO)O1)NCCCN1CCOCC1 | inactive: 0.973
C[C@H](CO)N1C[C@H](C)[C@@H](CN(C)Cc2ccc(C(F)(F)F)cc2)Oc2ccc(NC(=O)Nc3ccc(C(F)(F)F)cc3)cc2C1=O | inactive: 1.01
COc1ccc2c3c([nH]c2c1)[C@H](CO)N(C[C@]13CCN(CC1)C(=O)c1ccccc1F)C(=O)Nc1ccc(cc1)F | inactive: 1.02
Cc1ccc(S(=O)(=O)N(C)C[C@H]2Oc3ccc(NC(=O)CCCN(C)C)cc3C(=O)N([C@H](C)CO)C[C@H]2C)cc1 | inactive: 0.989
C[C@H]1CN([C@@H](C)CO)S(=O)(=O)c2ccc(C#CCN(C)C)cc2O[C@@H]1CN(C)C(=O)CN(C)C | inactive: 0.986
